The text below walks through data of publication PMC9177837.

These are yes or no findings as the source states them, for the method shown. Binding seen in cells or lysates may run through a third protein. Some binding calls cover weakened binding; strength is not graded here.

For assay [1], the target named is MET WT (MET plasmid) (UniProt P08581). Description: co-IP; HepG2-MET-KO cells transfected with MET WT, MET Y1349F and/or PTP4A1 plasmid, 48 h; lysates immunoprecipitated with anti-MET antibody, immunoblot (Fig. 8b); also MET-transfected cells treated with 50 ng/mL r-LECT2 and/or 10 ng/mL HGF for 1 h (Fig. 8d).
The target of assay [2] is MET (human (endogenous in HepG2)) (UniProt P08581). Kind of assay: co-IP; endogenous proteins; HepG2-WT lysate immunoprecipitated with anti-MET antibody on Dynabeads Protein G, immunoblot; cells untreated or treated with r-LECT2 (0, 5, 10, 50 ng/mL, 6 h). On the technique in general: Immunoblotting shows a protein as a band on a membrane.
Assay [3] concerns the target MET WT (MET plasmid) (UniProt P08581). Description: co-IP; MET overexpressed in HepG2-WT and HepG2-MET-KO cells; MET immunoprecipitated, immunoblot of endogenous PTP4A1 and p-SHP2 (Fig. 7a).
The target of another assay is MET Y1349F (UniProt P08581). Description: co-IP; HepG2-MET-KO cells transfected with MET WT, MET Y1349F and/or PTP4A1 plasmid, 48 h; lysates immunoprecipitated with anti-MET antibody, immunoblot (Fig. 8b); also MET-transfected cells treated with 50 ng/mL r-LECT2 and/or 10 ng/mL HGF for 1 h (Fig. 8d).

B1: PTP4A1 (enzyme, UniProt Q93096 1-173)
chain: MARMNRPAPVEVTYKNMRFLITHNPTNATLNKFIEELKKYGVTTIVRVCEATYDTTLVEKEGIHVLDWPFDDGAPPSNQIVDDWLSLVKIKFREEPGCCIAVHCVAGLGRAPVLVALALIEGGMKYEDAVQFIRQKRRGAFNSKQLLYLEKYRPKMRLRFKDSNGHRNNCCIQ
Turning to B1, the binding entry (with MET WT (MET plasmid) [1]; in assay [2]; with MET WT (MET plasmid) [3]) was “binds” in each case.

B2: PTP4A1 (overexpressed from the PTP4A1 plasmid) (enzyme, UniProt Q93096 1-173)
chain: MARMNRPAPVEVTYKNMRFLITHNPTNATLNKFIEELKKYGVTTIVRVCEATYDTTLVEKEGIHVLDWPFDDGAPPSNQIVDDWLSLVKIKFREEPGCCIAVHCVAGLGRAPVLVALALIEGGMKYEDAVQFIRQKRRGAFNSKQLLYLEKYRPKMRLRFKDSNGHRNNCCIQ
In the case of B2, the binding result with MET Y1349F is on record as “no binding”; in the assay with MET WT (MET plasmid) [1], “binds”.
